Hit rate of the full screen: of about 150,000 compounds, about 540 (0.36%) showed an effect of 50% or more. The list shows a part of the results.

This assay relates to Plasmodium falciparum. Briefly: Primary screen in NF54 nanoGlo assay, in single point, at 2uM, 72h; a lower Z score goes with more inhibition. Type of assay: functional, Erythrocyte. As to conditions: timepoint 72 hour.
Regarding `O=C(c1ccncc1)N1C[C@H](OCc2nc3ccccc3[nH]2)[C@@H](F)C1`, the % Inhibition (as a rule, the drop in the measured response relative to a control, in per cent) came to 11% and the Z score was -1.26.
In the same order, the values of `O=S(=O)(CC1CC(F)(F)C1)N1CCOC[C@H]1C1CC1` are -6% and 1.09.
Taken in the same sequence, the figures for `O=C(c1ccccc1OC1CC1)N1CC2CCC(C1)O2` were -6% and 0.82.
In the same order, the values of `Cc1ccccc1C(=O)N(CCN1CCOCC1)CC(=O)Nc1nc(-c2ccccc2)cn1-c1ccc(C(C)C)cc1` are -8% and 1.14.
For the molecule `CC(=O)N1CCC[C@H](NC(=O)Nc2ccccc2-c2ccccc2)C1`, the “% Inhibition” value is recorded as -11% and the Z score came to 1.99.
In the case of `O=C(CCn1cnnn1)Nc1n[nH]c(CCC2CCCC2)n1`, the “% Inhibition” value is reported as -10% and the Z score was determined as 1.27.
In the same order, the values of `Cc1cc(CNC[C@H]2CC(=O)N(C3CC3)C2)cc(C)c1OC(F)F` are 6% and -0.65.
Taken in the same sequence, the figures for `CC(C)n1cc(C(=O)N2C[C@@H]3CC[C@H]2CN(C)C3)cn1` were -8% and 1.57.
Taken in the same sequence, the figures for `COc1ccccc1N1CCN(C(=O)Cn2c(C)cc3nc4n(c(=O)c32)CCCCC4)CC1` were -13% and 1.51.
With `CCCc1[nH]ccc1C(=O)N[C@@H](CC)CC#N`, the “% Inhibition” value was -17% and the Z score is reported as 1.41.
In the case of `CC[C@H](C)Cc1nc(CN2CCCC2=O)n(-c2cccc(C)n2)n1`, the “% Inhibition” value is -5% and the Z score is 1.01.
Taken in the same sequence, the figures for `O=S(=O)(NCc1cscn1)c1ccc(C2CCCCC2)cc1` were -7% and 1.11.
Taken in the same sequence, the figures for `COc1cc(OC)c(NC(=O)CN2CCC(C(=O)N3CC(C)CC(C)C3)CC2)cc1Cl` (stereo not drawn) were -15% and 1.47.
In the same order, the values of `Cc1ccc(OCC(=O)NC2(C(=O)O)CCC2)c(C)c1` are -10% and 1.33.
Regarding `C[C@H]1CCCN(c2ccc(Cl)cc2NC(=O)CCN2CCCCC2=O)C1`, the “% Inhibition” value is reported as -9% and the Z score amounted to 1.18.
Turning to `COc1ccc(N(C)CCC(=O)NC(N)=O)cc1OC`, the “% Inhibition” value turned out to be 3% and the Z score is listed as -0.44.
Taken in the same sequence, the figures for `C#Cc1cccc(N(C)S(=O)(=O)N2CCOC(C)(C)C2)c1` were -6% and 0.48.
In the same order, the values of `Cc1cccc(Cn2c(=O)c3nscc3n(Cc3c(C)noc3C)c2=O)c1` are -1% and 0.11.
Taken in the same sequence, the figures for `O=C(Cc1ccccc1)N1CCN(C(=O)c2cnn3ccccc23)CC1` were -5% and 0.82.
Turning to `COc1cccc(-c2noc(-c3cnc(OC)nc3C)n2)c1`, the “% Inhibition” value was -8% and the Z score is listed as 0.93.
Taken in the same sequence, the figures for `Cn1cc([C@H](NCc2cnc3cnccn23)c2ccc(F)cc2)cn1` were -20% and 3.79.
Taken in the same sequence, the figures for `COC[C@@H](O)CCNC(=O)Nc1ccc(Br)c(C)c1F` were 5% and -0.93.
In the same order, the values of `CC(CC#N)NC(=O)C1(F)CN(C(=O)OC(C)(C)C)CC12COC2` (stereo not drawn) are -1% and 0.13.
For the molecule `COC(=O)C(Cc1c[nH]c2cc(F)ccc12)NC(=O)C1C2CCCC21` (stereo not drawn), the “% Inhibition” value was -14% and the Z score is 1.55.
In the case of `Cc1nc(C)c(C(=O)O[C@H](c2c(C)nn(C)c2C)C(F)(F)F)o1`, the “% Inhibition” value was 1% and the Z score is -0.08.
As to `Clc1cc2c(cc1NC1CCCCC1)OCO2`, the “% Inhibition” value came to 4% and the Z score is on record as -0.52.
Taken in the same sequence, the figures for `Cc1ccc(NC(=O)C2(NC(=O)c3ccccn3)CCCCC2)cc1Br` were -44% and 5.22.
In the case of `C=CCNC(=O)CN(CC)c1cccc(O)c1`, the “% Inhibition” value is given as -10% and the Z score is 1.03.
In the same order, the values of `CC1CN(c2ncc(F)cn2)CCN(c2ncc(F)cn2)C1` are -11% and 2.06.
Taken in the same sequence, the figures for `OC[C@H](NCc1noc(-c2ccsc2)n1)c1ccccc1` were -12% and 1.59.
Turning to `Cc1sc(-c2ccc(C(F)(F)F)cc2)nc1-c1ccc2c(c1)NC(=O)CO2`, the “% Inhibition” value is -14% and the Z score was 1.82.
As to `Cc1ccccc1NC(=O)N1CCCC[C@H](c2ccccc2)C1`, the “% Inhibition” value is -14% and the Z score is on record as 2.14.
In the same order, the values of `Cc1cnccc1-c1ccc(C(=O)N2CC[C@H](O)C[C@@H]2C)s1` are -9% and 1.75.
Taken in the same sequence, the figures for `O=C([C@@H]1CCCN1C1CC1)N1CCC2(CC1)OCCc1ccccc12` were -14% and 1.46.
On to `C[C@H](O)CCOc1ccc2c(n1)CCC2`, for which the “% Inhibition” value is on record as -3% and the Z score is 0.48.
In the same order, the values of `CCn1c(CN2CCC[C@H]2c2nc(-c3ccncc3)no2)nc2ccccc21` are -10% and 1.45.
Taken in the same sequence, the figures for `CCc1nnc2n1CCN(c1cccc(F)c1C#N)C2` were -2% and 0.27.
Taken in the same sequence, the figures for `CC(C)(c1ccccc1)c1nnc(NC(=O)NC[C@H]2CCOC2)s1` were 11% and -1.48.
In the case of `O=S(=O)(NC[C@]1(O)CCCc2ccccc21)c1cncc(F)c1`, the “% Inhibition” value came to 0% and the Z score stood at 0.01.
For the molecule `COc1ccc(C(=O)N(Cc2ccc(OS(=O)(=O)c3ccc(F)cc3)cc2)C(C)C)c(OC)c1`, the “% Inhibition” value is on record as -14% and the Z score came out at 1.5.
In the same order, the values of `CC(C)(C)OC(=O)N1C[C@@H](F)C[C@@H]1C(=O)NCC=Cc1cccnc1` are -10% and 1.86.
Taken in the same sequence, the figures for `C[C@@]1(C2CCN(C(=O)Nc3cccc(F)c3)CC2)NC(=O)NC1=O` were 2% and -0.25.
In the same order, the values of `O=C(NCc1nnc2n1CCC2)c1ccc2c(c1)OCO2` are 2% and -0.37.
For the molecule `CCCc1noc(-c2cccn3c(CC(=O)N4CCCCCC4)nnc23)n1`, the “% Inhibition” value is listed as -8% and the Z score was 1.36.
Taken in the same sequence, the figures for `CCn1nc([C@H]2CCOC2)nc1Cn1nc2ccccc2n1` were 12% and -1.57.
In the same order, the values of `CC(C)C(C)NC(=O)c1cc(Br)c(C(=O)NC(C)C(C)C)cc1Br` (stereo not drawn) are 3% and -0.51.
Take `Cc1nc2cc(C(=O)NCC#C[C@@H]3CCCCO3)ccc2c(=O)[nH]1`: the “% Inhibition” value came out at 7% and the Z score is given as -0.97.
Taken in the same sequence, the figures for `CC(=O)N[C@@H](C)C(=O)Nc1ccc(F)cc1C` were 7% and -1.02.
Taken in the same sequence, the figures for `COc1ccc(CNc2ncnc3c2nc2n3CCCCC2)cc1` were -6% and 1.16.
In the case of `Cc1c(CN[C@@H](Cc2c(F)cccc2Cl)c2ccco2)cnn1C`, the “% Inhibition” value is -11% and the Z score stood at 1.16.
In the same order, the values of `CN(CC(=O)NC1CC1)C(=O)c1cc2c(ccc3ccccc32)[nH]1` are -1% and 0.14.
Taken in the same sequence, the figures for `Cn1c2c(cc(C(=O)N3CCOC[C@@H]3CC(N)=O)c1=O)CCCC2` were -4% and 0.48.
In the same order, the values of `CCCCn1ncnc1CCc1n[nH]c2c1CCCC2` are -12% and 1.69.
For the molecule `COc1ccc(-c2cn[nH]c(=O)n2)cc1`, the “% Inhibition” value was -17% and the Z score came out at 1.55.
In the same order, the values of `O=C(NC1CCCC1)N(CC1CCCCC1)C1CC1` are -5% and 0.49.
Taken in the same sequence, the figures for `CC[C@@H](C(=O)Nc1ccc(Cl)cc1C)n1nc(C)c2nn(-c3ccccc3)c(C)c2c1=O` were -4% and 0.54.
Taken in the same sequence, the figures for `O=C(c1n[nH]c2c1CCC2)N1CCC(c2nnc3n2CCCCC3)CC1` were -7% and 1.17.
In the case of `Cc1cc(C)n(CCN2CCN(S(=O)(=O)c3cccs3)CC2)n1`, the “% Inhibition” value was -7% and the Z score is listed as 1.28.
Taken in the same sequence, the figures for `Cc1cccc(OCCn2c(=O)ccc3ccccc32)c1C` were 13% and -1.75.
Taken in the same sequence, the figures for `Cc1cccc(O[C@H]2CCN(S(=O)(=O)c3cc(Cl)ccc3C)C2)n1` were -15% and 2.92.
In the same order, the values of `COCC(=O)N[C@H]1[C@H](c2cccs2)N(C(=O)c2ccccc2)CC[C@@]1(C)O` are 14% and -2.16.
Consider `Cc1noc(C)c1S(=O)(=O)N(C)CCOc1ccc(Br)cc1`, for which the “% Inhibition” value is reported as 31% and the Z score is given as -3.94.
Taken in the same sequence, the figures for `CC(C)C(=O)N(Cc1ccccc1)C[C@H]1CC(c2ccccc2)=NO1` were -8% and 1.24.
In the same order, the values of `O=c1c(Nc2ccccc2Cl)nccn1C1CC1` are -11% and 1.28.
For the molecule `COc1ccc(-c2noc(CN3CCc4ccccc43)n2)cc1OC`, the “% Inhibition” value is reported as -13% and the Z score is 1.45.
Turning to `O=C(O)C(c1cccc(Cl)c1Cl)N1C[C@@H](CO)[C@H](c2ccsc2)C1` (stereo partly drawn), the “% Inhibition” value was -14% and the Z score is 2.03.
In the same order, the values of `Cc1c(NC(=O)c2nc(C)n(-c3ccccc3Cl)n2)cccc1C(=O)N1CCCC1` are -11% and 1.5.
Consider `Cc1cnc([C@@H](NCc2ccc(-c3ccc(F)cc3C)o2)C2CC2)s1`, for which the “% Inhibition” value is -5% and the Z score is on record as 0.71.
In the same order, the values of `CCOCCN(C)[C@@H](C)c1nccc(N)n1` are 12% and -1.67.
In the same order, the values of `COCCOCC(=O)N1CC2(C)CN(Cc3ccccc3)CC2(C)C1` (stereo not drawn) are 0% and -0.06.
In the same order, the values of `CCCc1cnc(C)nc1N1Cc2cnn(CCO)c2C1` are -11% and 2.17.
`CC(C)NC(=O)c1ccnc(N2CC(c3cccnc3)C2)c1`: the “% Inhibition” value is on record as 1% and the Z score is listed as -0.25.
In the same order, the values of `COC(C)(C)c1nc(C)c(C(=O)NC[C@H]2COc3ccccc32)s1` are -11% and 1.27.
Taken in the same sequence, the figures for `Cc1ccccc1N1CCN(c2nccn3c(=O)n(CC(=O)NC4CCCCC4)nc23)CC1` were -17% and 1.68.
As to `CCN(C)C(=O)c1ccc(-c2cc(O)cc(CC[C@H]3CCCCN3)c2)nc1`, the “% Inhibition” value was -2% and the Z score came out at 0.34.
Consider `COC1CCC2OCCN(C(=O)N3CCOCC3)C2C1` (stereo not drawn), for which the “% Inhibition” value was 19% and the Z score is -2.43.
In the same order, the values of `CCOc1ccc(CN(CC)C(=O)c2ccc3c(=O)n4c(nc3c2)CCCCC4)cc1OC` are -16% and 1.48.
Taken in the same sequence, the figures for `Cc1cccnc1N(C)C(=O)[C@@H](c1ccccc1)N1CCCCC1=O` were -14% and 2.02.
Regarding `CC(C)(C)OC(=O)N[C@@H]1CCCC[C@H]1NC(=O)NC1CCCCC1`, the “% Inhibition” value is -4% and the Z score is 0.48.
Regarding `COCCN(Cc1ccc(OC)c(OC)c1)C[C@H](Oc1ccccc1)C(=O)N1CCOCC1`, the “% Inhibition” value is -4% and the Z score came out at 0.39.
Taken in the same sequence, the figures for `COc1ccc(S(=O)(=O)N2CCCCC[C@H]2c2ccccc2Cl)cc1OC` were -7% and 0.95.
For the molecule `CC(=O)c1nc(CCN(C)C(C)=O)sc1C`, the “% Inhibition” value was -10% and the Z score was 1.24.
`Cc1oc(-c2ccn[nH]2)cc1S(=O)(=O)Nc1ccc(OC(F)(F)F)cc1`: the “% Inhibition” value was 13% and the Z score is on record as -1.33.
Take `CCCS(=O)(=O)N1CC[C@H]2CN(Cc3ccccc3)C[C@@]2(CO)C1`: the “% Inhibition” value was -10% and the Z score came out at 1.4.
